Measurements published in the supplement of paper PMC3334620.
Whole data set: some 33,000 sequences, median “E-score (-0.5 to 0.5)” near -0.012, cut for the highest 2% near 0.29. The list shows a part of the results.

target: T1, Ybr033w (UniProt P38073); test: PBM E-score (8-mer binding enrichment) (E-score (-0.5 to 0.5)); higher = stronger / more preferred TF binding; most listed sequences are background and not binding sites; conditions: protein concentration: 200 nM; construct: GST-full length
T1 sequence: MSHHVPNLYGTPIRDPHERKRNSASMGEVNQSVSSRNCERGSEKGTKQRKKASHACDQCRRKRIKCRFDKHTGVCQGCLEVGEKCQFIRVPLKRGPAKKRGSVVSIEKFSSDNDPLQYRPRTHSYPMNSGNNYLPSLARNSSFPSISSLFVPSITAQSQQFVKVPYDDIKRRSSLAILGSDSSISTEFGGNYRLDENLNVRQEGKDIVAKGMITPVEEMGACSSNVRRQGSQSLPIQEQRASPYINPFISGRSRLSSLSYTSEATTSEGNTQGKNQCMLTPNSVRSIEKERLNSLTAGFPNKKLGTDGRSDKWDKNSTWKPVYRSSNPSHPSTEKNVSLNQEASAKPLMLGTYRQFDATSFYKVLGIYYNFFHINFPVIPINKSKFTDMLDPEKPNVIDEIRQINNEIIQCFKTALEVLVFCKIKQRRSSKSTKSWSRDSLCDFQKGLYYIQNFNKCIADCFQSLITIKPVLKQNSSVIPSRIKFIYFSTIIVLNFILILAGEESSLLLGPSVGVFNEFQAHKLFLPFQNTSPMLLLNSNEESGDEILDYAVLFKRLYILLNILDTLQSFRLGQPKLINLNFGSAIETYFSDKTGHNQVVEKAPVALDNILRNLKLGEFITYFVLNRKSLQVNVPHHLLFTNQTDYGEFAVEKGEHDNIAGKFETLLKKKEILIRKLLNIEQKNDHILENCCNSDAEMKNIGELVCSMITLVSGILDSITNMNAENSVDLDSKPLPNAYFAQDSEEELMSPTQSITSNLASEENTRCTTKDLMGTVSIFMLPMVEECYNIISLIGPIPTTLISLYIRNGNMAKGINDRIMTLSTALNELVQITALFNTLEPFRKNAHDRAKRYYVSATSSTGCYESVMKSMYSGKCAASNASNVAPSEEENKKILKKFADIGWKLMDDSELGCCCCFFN
Method in brief: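 Yeast transcription factors, full-length or as DNA-binding domains, were expressed with a GST tag using PURExpress in vitro transcription/translation. At about 100-200 nM they were applied to universal all-10-mer Agilent arrays, double-stranded by primer extension on fresh or once-stripped slides. Fluorescent anti-GST detected bound protein, and masliner normalised the scans. E-scores for ungapped eight-base words, pooled with reverse complements, came from the Universal PBM Analysis Suite.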

| Sequence | PBM E-score |
| --- | --- |
| GACCTATC | -0.0417 |
| GCCCTAGA | -0.367 |
| CATGAGCG | -0.143 |
| GAAAGTTA | 0.218 |
| AAGCACGC | 0.053 |
| AGTCGCAG | -0.0829 |
| TCCTACAA | 0.146 |
| GGTTGGAA | -0.16 |
| ACCAGGCT | -0.156 |
| GGCCACTA | -0.184 |
| CAACCCAA | 0.07 |
| GCCCCGTA | -0.286 |
| TGCCCACA | -0.184 |
| CGCCCGAA | -0.0773 |
| AAACTCAG | 0.0191 |
| CCACCATC | -0.168 |
| ATTCCATA | 0.184 |
| AGGAGCCC | -0.295 |
| AAGTCGAC | 0.0844 |
| AACGGTCG | 0.0267 |
| CCTCGGCG | 0.043 |
| TGGGCTAA | -0.0063 |
| AAAAAAAG | 0.273 |
| AAAACACA | 0.21 |
| CCTCAGTC | -0.0487 |

| Sequence | PBM E-score |
| --- | --- |
| AGCAATTC | 0.0769 |
| AGGGCGCG | -0.0891 |
| CTTCTTAA | 0.124 |
| AAATGCTC | 0.16 |
| CTTCAACA | 0.0272 |
| GATGAAAA | 0.00976 |
| CCTTCACC | -0.132 |
| AGATTGGG | 0.0807 |
| TGAATTAA | 0.226 |
| ACGGGGTG | -0.117 |
| CAACTATA | 0.146 |
| ACCGTCCA | 0.0406 |
| AAAACGCT | 0.0375 |
| AGGAATTC | 0.129 |
| CACCGCGA | 0.0136 |
| CAACGGTG | -0.316 |
| ATGCAGCA | 0.0882 |
| AAAATTTC | 0.132 |
| ACGTCAAT | -0.0265 |
| GATCGCCC | -0.204 |
| ACTAGGTC | 0.0292 |
| TCTTATCA | 0.211 |
| ATTACCCA | 0.129 |
| AATGTTTA | 0.221 |
| CGATTTAC | 0.0542 |

| Sequence | PBM E-score |
| --- | --- |
| ACGAGCCG | 0.0563 |
| CGACGGCC | -0.243 |
| ACAAGCTA | 0.012 |
| AGTGGGTC | -0.199 |
| CTCCGTCA | -0.0826 |
| AGCGCAAG | -0.0628 |
| CTCAATCA | -0.0022 |
| CCTGGCCC | -0.239 |
| AGGCACCT | -0.275 |
| AATCTGCT | 0.00792 |
| AGGTTGCC | -0.191 |
| CTAAGTAA | 0.153 |
| ACGTAACG | -0.112 |
| CCGTTACG | -0.188 |
| GACGAGTC | -0.172 |
| AGCGTAAC | 0.215 |
| AAAGTTGG | 0.0498 |
| AAAATGAT | 0.369 |
| GGTGCCAC | -0.264 |
| TAATGATA | 0.231 |
| CGCTGCGA | 0.0285 |
| ACGCTCTA | -0.258 |
| CTTTCCCA | 0.0774 |
| GCAAAGGC | -0.125 |
| CACATAAG | -0.067 |

| Sequence | PBM E-score |
| --- | --- |
| ATTAGAAA | 0.135 |
| AGTATACT | -0.0243 |
| CACCGGGA | -0.153 |
| GAGCGTAA | 0.0655 |
| AGCCAACT | -0.135 |
| ACGCCGAT | -0.117 |
| AACTGATT | 0.0282 |
| GGAAGACC | -0.111 |
| CCATATAA | 0.0777 |
| AGCGTGCG | -0.0659 |
| CCGCCCTA | -0.209 |
| CATTTAGC | 0.056 |
| GTAGAAGA | 0.0331 |
| AATACGAA | 0.203 |
| CACAACCC | -0.0485 |
| AACAGCTA | 0.031 |
| GAAGAGAC | 0.0169 |
| GCCAGGAC | -0.224 |
| TAGGGACA | -0.0843 |
| AAGAAGGG | -0.147 |
| GGAAGAAA | 0.34 |
| CCCTTTGA | -0.129 |
| GCAGCCCA | -0.227 |
| AAACCTAG | 0.0566 |
| GCCGCACA | -0.153 |

| Sequence | PBM E-score |
| --- | --- |
| ATATAACC | -0.0293 |
| AAAATATA | 0.28 |
| AGTTTGGA | 0.202 |
| ATGCAAGG | -0.187 |
| AAGTTCAA | 0.214 |
| AATCTCCC | -0.211 |
| AATCAGGT | 0.209 |
| TCAACTCA | -0.0095 |
| GAGCCAAA | -0.113 |
| AGCTACCA | 0.0753 |
| CTATAAAG | 0.0555 |
| GATTTGCC | 0.0208 |
| GACCGTGA | -0.00429 |
| CACCCATC | -0.117 |
| AAAGCAAA | 0.203 |
| CAATTAAG | 0.209 |
| AAACAGGT | -0.0285 |
| AGCTGTTC | -0.167 |
| CTGTGGCC | -0.353 |
| ACGAATGG | 0.102 |
| AATGCGCT | 0.109 |
| CGCAACCA | -0.0619 |
| CTTTGGGC | -0.126 |
| CAACGCTA | -0.235 |
| CCCAGCAA | -0.118 |

| Sequence | PBM E-score |
| --- | --- |
| GCTAACCC | -0.204 |
| GTCAAGGA | -0.103 |
| CGAGAGGA | -0.106 |
| ATAGCTAG | -0.0835 |
| CGACGGTA | -0.0307 |
| CATTGCAG | 0.0441 |
| GATTTCTA | 0.00415 |
| CCAGAGAC | -0.0184 |
| AGTTGACC | -0.0414 |
| GAAGATTA | 0.366 |
| AACGAATT | 0.216 |
| TCATCACA | 0.0229 |
| CCAACAAA | 0.227 |
| ACACAGCT | 0.036 |
| TAGGTGCA | -0.0741 |
| ACAGGAAG | -0.19 |
| GAAGAACA | 0.353 |
| AAACCTAA | 0.0716 |
| ACGCACGG | -0.194 |
| CAGGTGCC | -0.195 |
| GACTCATC | -0.172 |
| ATTCGGTA | 0.139 |
| AGATGGAC | 0.0158 |
| GTCGATAA | -0.161 |
| ATGGGGGA | -0.165 |

| Sequence | PBM E-score |
| --- | --- |
| CAACTTGA | 0.253 |
| AAAGAAGT | 0.128 |
| ACTGAGCA | -0.147 |
| CCGTGTGA | -0.172 |
| CGTGCAGA | -0.229 |
| CATTCGAG | 0.0185 |
| AATTAAGG | 0.129 |
| TCTCGGAA | 0.08 |
| AGCCAAAG | -0.0877 |
| CAGGGAAC | 0.0159 |
| AATTCAGT | -0.0238 |
| AATACGCT | 0.12 |
| AAGAACCA | 0.174 |
| AAATGTGC | 0.0669 |
| GGCTCCGA | -0.219 |
| TGCGACCA | 0.0839 |
| AATTACAT | 0.238 |
| CGGGACAA | -0.0717 |
| CAGATGGC | -0.0398 |
| CATATGGC | 0.0842 |
| ACATGAAA | 0.00228 |
| GTTGGTGA | 0.0876 |
| ATTTGAGG | -0.135 |
| GGTCACTA | -0.0457 |
| GATGTAGA | -0.1 |

| Sequence | PBM E-score |
| --- | --- |
| GGCACCAA | -0.0873 |
| ATTCGGAC | 0.131 |
| ATCGGTCG | -0.00188 |
| AACGCAAC | 0.00161 |
| ACTAATAT | 0.118 |
| GTAAATGA | 0.235 |
| AAAGCTCG | -0.0135 |
| GGTCTACA | 0.136 |
| ACTTCTCT | 0.0454 |
| CTGACTTA | 0.215 |
| AATTGCCC | 0.092 |
| TACCGTGA | -0.033 |
| GAGACGGA | 0.07 |
| CTTACATC | 0.0824 |
| ATGGTGCA | 0.0181 |
| ATAGAGCG | -0.117 |
| CTTGAGTC | -0.156 |
| ACTGTCAA | 0.00318 |
| ATCGCCCG | -0.19 |
| ACCGGTCA | -0.2 |
| CCAGAACG | -0.124 |
| AGCAGGCT | -0.291 |
| CCATCGTC | -0.148 |
| CACTGGTA | -0.102 |
| ATCACTAG | -0.0619 |

| Sequence | PBM E-score |
| --- | --- |
| AATAGAAT | 0.278 |
| GGTACACC | -0.202 |
| GAGTCCAA | 0.0691 |
| GTACGCAC | -0.138 |
| TATTCGAA | 0.0583 |
| CACCGGTA | -0.0543 |
| CAGCTGTA | -0.19 |
| CAGAAAAC | 0.173 |
| GTCAACAC | 0.115 |
| ACGGCTCG | 0.135 |
| CAACAGAC | 0.139 |
| TGACGGCA | -0.224 |
| AATGTACT | 0.144 |
| CTAGTCCC | -0.204 |
| CCCTAGCG | -0.311 |
| ACAATCAA | 0.165 |
| GACGGAGC | -0.179 |
| AAATGATG | 0.248 |
| AACGACAA | 0.175 |
